# The other results are listed elsewhere or left out.
# B1: Gal 1 (Mus musculus), P16045 (protein)
# chain: MACGLVASNLNLKPGECLKVRGEVASDAKSFVLNLGKDSNNLCLHFNPRFNAHGDANTIVCNTKEDGTWGTEHREPAFPFQPGSITEVCITFDQADLTIKLPDGHEFKFPNRLNMEAINYMAADGDFKIKCVAFE
# Assays:
# Assay in all cases: glycan array binding signal (z-score within array); higher = stronger binding
# Conditions in all cases: glycan notation: IUPAC condensed, linker removed
# [1] = target: Neu5Ac(a2-3)Gal(b1-4)GlcNAc(b1-3)Gal(b1-4)GlcNAc(b1-3)GalNAc
# How it was run: (§1)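 Glycan array binding is given as a within-array Z-score, which can be read as non-binding when negative. The arrays, 3228 of them, came from the Consortium for Functional Glycomics database and were retained only where the protein sequence was available. Z-scores were averaged across arrays of the same protein sequence at different concentrations or buffers and across linkers.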
# [2] = target: Neu5Ac(a2-3)Gal(b1-4)GlcNAc(b1-3)Gal(b1-4)GlcNAc(b1-3)[Neu5Ac(a2-3)Gal(b1-4)GlcNAc(b1-3)Gal(b1-4)GlcNAc(b1-6)]GalNAc
# How it was run: as §1
# [3] = target: Neu5Ac(a2-3)Gal(b1-4)GlcNAc(b1-3)Gal(b1-4)GlcNAc(b1-6)[Gal(b1-3)]GalNAc
# How it was run: as §1
# [4] = target: Neu5Ac(a2-3)Gal(b1-4)GlcNAc(b1-3)Gal(b1-4)[Fuc(a1-3)]GlcNAc
# How it was run: as §1
# [5] = target: Neu5Ac(a2-3)Gal(b1-4)GlcNAc(b1-3)GalNAc
# How it was run: as §1
# [6] = target: Neu5Ac(a2-3)Gal(b1-4)GlcNAc(b1-3)[Neu5Ac(a2-3)Gal(b1-4)GlcNAc(b1-6)]GalNAc
# How it was run: as §1
# [7] = target: Neu5Ac(a2-3)Gal(b1-4)GlcNAc(b1-6)GalNAc
# How it was run: as §1
# [8] = target: Neu5Ac(a2-3)Gal(b1-4)GlcNAc(b1-6)[Gal(b1-3)]GalNAc
# How it was run: as §1
# [9] = target: Neu5Ac(a2-3)Gal(b1-4)GlcNAc(b1-6)[Neu5Ac(a2-3)Gal(b1-3)]GalNAc
# How it was run: as §1
# [10] = target: Neu5Ac(a2-3)Gal(b1-4)GlcNAc6S
# How it was run: as §1
# [11] = target: Neu5Ac(a2-3)Gal(b1-4)[Fuc(a1-3)]GlcNAc
# How it was run: as §1
# [12] = target: Neu5Ac(a2-3)Gal(b1-4)[Fuc(a1-3)]GlcNAc(b1-2)Man
# How it was run: as §1
# [13] = target: Neu5Ac(a2-3)Gal(b1-4)[Fuc(a1-3)]GlcNAc(b1-3)Gal
# How it was run: as §1
# [14] = target: Neu5Ac(a2-3)Gal(b1-4)[Fuc(a1-3)]GlcNAc(b1-3)Gal(b1-4)GlcNAc
# How it was run: as §1
# [15] = target: Neu5Ac(a2-3)Gal(b1-4)[Fuc(a1-3)]GlcNAc(b1-3)Gal(b1-4)[Fuc(a1-3)]GlcNAc(b1-3)Gal(b1-4)[Fuc(a1-3)]GlcNAc
# How it was run: as §1
# [16] = target: Neu5Ac(a2-3)Gal(b1-4)[Fuc(a1-3)]GlcNAc(b1-3)GalNAc
# How it was run: as §1
# [17] = target: Neu5Ac(a2-3)Gal(b1-4)[Fuc(a1-3)]GlcNAc(b1-6)[Gal(b1-3)]GalNAc
# How it was run: as §1
# [18] = target: Neu5Ac(a2-3)Gal(b1-4)[Fuc(a1-3)]GlcNAc(b1-6)[Neu5Ac(a2-3)Gal(b1-3)]GalNAc
# How it was run: as §1
# [19] = target: Neu5Ac(a2-3)Gal(b1-4)[Fuc(a1-3)]GlcNAc6S
# How it was run: as §1
# [20] = target: Neu5Ac(a2-3)Gal6S(b1-4)GlcNAc
# How it was run: as §1
# [21] = target: Neu5Ac(a2-3)Gal6S(b1-4)[Fuc(a1-3)]GlcNAc
# How it was run: as §1
# Neu5Ac(a2-3)GalNAc = target: Neu5Ac(a2-3)GalNAc
# How it was run: as §1
# [22] = target: Neu5Ac(a2-3)GalNAc(b1-4)GlcNAc
# How it was run: as §1
# [23] = target: Neu5Ac(a2-3)[GalNAc(b1-4)]Gal(b1-4)Glc
# How it was run: as §1
# [24] = target: Neu5Ac(a2-3)[GalNAc(b1-4)]Gal(b1-4)GlcNAc
# How it was run: as §1
# [25] = target: Neu5Ac(a2-3)[GalNAc(b1-4)]Gal(b1-4)GlcNAc(b1-3)GalNAc
# How it was run: as §1
# [26] = target: Neu5Ac(a2-3)[Neu5Ac(a2-6)]GalNAc
# How it was run: as §1
# Neu5Ac(a2-6)Gal = target: Neu5Ac(a2-6)Gal
# How it was run: as §1
# [27] = target: Neu5Ac(a2-6)Gal(b1-3)GlcNAc(b1-3)[Gal(b1-4)GlcNAc(b1-6)]Gal(b1-4)Glc
# How it was run: as §1
# Neu5Ac(a2-6)Gal(b1-4)Glc = target: Neu5Ac(a2-6)Gal(b1-4)Glc
# How it was run: as §1
# [28] = target: Neu5Ac(a2-6)Gal(b1-4)GlcNAc
# How it was run: as §1
# [29] = target: Neu5Ac(a2-6)Gal(b1-4)GlcNAc(b1-2)Man
# How it was run: as §1
# [30] = target: Neu5Ac(a2-6)Gal(b1-4)GlcNAc(b1-2)Man(a1-3)Man(b1-4)GlcNAc(b1-4)GlcNAc
# How it was run: as §1
# [31] = target: Neu5Ac(a2-6)Gal(b1-4)GlcNAc(b1-2)Man(a1-3)[Gal(b1-4)GlcNAc(b1-2)Man(a1-6)]Man(b1-4)GlcNAc(b1-4)GlcNAc
# How it was run: as §1
# [32] = target: Neu5Ac(a2-6)Gal(b1-4)GlcNAc(b1-2)Man(a1-3)[GlcNAc(b1-2)Man(a1-6)]Man(b1-4)GlcNAc(b1-4)GlcNAc
# How it was run: as §1
# [33] = target: Neu5Ac(a2-6)Gal(b1-4)GlcNAc(b1-2)Man(a1-3)[GlcNAc(b1-2)Man(b1-4)GlcNAc(b1-2)Man(a1-6)]Man(b1-4)GlcNAc(b1-4)GlcNAc
# How it was run: as §1
# [34] = target: Neu5Ac(a2-6)Gal(b1-4)GlcNAc(b1-2)Man(a1-3)[GlcNAc(b1-4)][Neu5Ac(a2-6)Gal(b1-4)GlcNAc(b1-2)Man(a1-6)]Man(b1-4)GlcNAc(b1-4)GlcNAc
# How it was run: as §1
# [35] = target: Neu5Ac(a2-6)Gal(b1-4)GlcNAc(b1-2)Man(a1-3)[Man(a1-6)]Man(b1-4)GlcNAc(b1-4)GlcNAc
# How it was run: as §1
# [36] = target: Neu5Ac(a2-6)Gal(b1-4)GlcNAc(b1-2)Man(a1-3)[Neu5Ac(a2-3)Gal(b1-4)GlcNAc(b1-2)Man(a1-6)]Man(b1-4)GlcNAc(b1-4)GlcNAc
# How it was run: as §1
# [37] = target: Neu5Ac(a2-6)Gal(b1-4)GlcNAc(b1-2)Man(a1-3)[Neu5Ac(a2-6)Gal(b1-4)GlcNAc(b1-2)Man(a1-6)]Man(b1-4)GlcNAc(b1-4)GlcNAc
# How it was run: as §1
# [38] = target: Neu5Ac(a2-6)Gal(b1-4)GlcNAc(b1-2)Man(a1-3)[Neu5Ac(a2-6)Gal(b1-4)GlcNAc(b1-2)Man(a1-6)]Man(b1-4)GlcNAc(b1-4)[Fuc(a1-6)]GlcNAc
# How it was run: as §1
# [39] = target: Neu5Ac(a2-6)Gal(b1-4)GlcNAc(b1-2)Man(a1-6)Man(b1-4)GlcNAc(b1-4)GlcNAc
# How it was run: as §1
# [40] = target: Neu5Ac(a2-6)Gal(b1-4)GlcNAc(b1-2)Man(a1-6)[Gal(b1-4)GlcNAc(b1-2)Man(a1-3)]Man(b1-4)GlcNAc(b1-4)GlcNAc
# How it was run: as §1
# [41] = target: Neu5Ac(a2-6)Gal(b1-4)GlcNAc(b1-2)Man(a1-6)[GlcNAc(b1-2)Man(a1-3)]Man(b1-4)GlcNAc(b1-4)GlcNAc
# How it was run: as §1
# [42] = target: Neu5Ac(a2-6)Gal(b1-4)GlcNAc(b1-2)Man(a1-6)[Man(a1-3)]Man(b1-4)GlcNAc(b1-4)GlcNAc
# How it was run: as §1
binder,measurement,setting,value
B1,glycan array binding signal (z-score),[1],-0.199
same,glycan array binding signal (z-score),[2],0.372
same,glycan array binding signal (z-score),[3],0.131
same,glycan array binding signal (z-score),[4],-0.268
same,glycan array binding signal (z-score),[5],-0.188
same,glycan array binding signal (z-score),[6],-0.219
same,glycan array binding signal (z-score),[7],-0.118
same,glycan array binding signal (z-score),[8],-0.328
same,glycan array binding signal (z-score),[9],-0.052
same,glycan array binding signal (z-score),[10],-0.198
same,glycan array binding signal (z-score),[11],-0.287
same,glycan array binding signal (z-score),[12],-0.196
same,glycan array binding signal (z-score),[13],-0.286
same,glycan array binding signal (z-score),[14],-0.283
same,glycan array binding signal (z-score),[15],-0.083
same,glycan array binding signal (z-score),[16],-0.23
same,glycan array binding signal (z-score),[17],-0.312
same,glycan array binding signal (z-score),[18],-0.171
same,glycan array binding signal (z-score),[19],-0.295
same,glycan array binding signal (z-score),[20],-0.411
same,glycan array binding signal (z-score),[21],-0.29
same,glycan array binding signal (z-score),Neu5Ac(a2-3)GalNAc,-0.44
same,glycan array binding signal (z-score),[22],-0.439
same,glycan array binding signal (z-score),[23],-0.315
same,glycan array binding signal (z-score),[24],-0.266
same,glycan array binding signal (z-score),[25],0.377
same,glycan array binding signal (z-score),[26],-0.3
same,glycan array binding signal (z-score),Neu5Ac(a2-6)Gal,-0.435
same,glycan array binding signal (z-score),[27],-0.279
same,glycan array binding signal (z-score),Neu5Ac(a2-6)Gal(b1-4)Glc,-0.31
same,glycan array binding signal (z-score),[28],-0.345
same,glycan array binding signal (z-score),[29],-0.343
same,glycan array binding signal (z-score),[30],0.026
same,glycan array binding signal (z-score),[31],-0.155
same,glycan array binding signal (z-score),[32],-0.409
same,glycan array binding signal (z-score),[33],-0.012
same,glycan array binding signal (z-score),[34],-0.393
same,glycan array binding signal (z-score),[35],-0.247
same,glycan array binding signal (z-score),[36],-0.219
same,glycan array binding signal (z-score),[37],0.231
same,glycan array binding signal (z-score),[38],-0.232
same,glycan array binding signal (z-score),[39],-0.309
same,glycan array binding signal (z-score),[40],-0.129
same,glycan array binding signal (z-score),[41],-0.289
same,glycan array binding signal (z-score),[42],-0.245
